Results on 51 molecules are retold here after the supplement of paper PMC10670038.

Where a name gives a salt, the structure may show the parent alone. ± gives the standard deviation of the averaged measurements. In all, about 2,000 compounds were measured (“relative cell viability vs DMSO, compound alone”: median about 1.1, lowest 2% from about 0.29 on). The list shows a part of the results.

The subject of the test is TE10. Nature of the test: relative cell viability vs DMSO, compound alone (fraction); TE10 is an esophageal squamous carcinoma line; higher = less cytotoxic. The conditions noted are these: 2 µM; 48 h. The method, then: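 TE10 ESCC cells (1,000/well, 384-well plates) were treated with Selleck bioactive library compounds at 2 uM alone for 48 h. Viability was read by CellTiter-Glo and expressed relative to DMSO wells. Two technical replicates (A, B).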
The molecule `CCc1cc2c(s1)-n1c(C)nnc1CN=C2c1ccccc1Cl` [Etizolam] had a relative cell viability of 1.11 ± 0.049.

The molecule `Cc1sc2c(c1C)C(c1ccc(Cl)cc1)=N[C@@H](CC(=O)OC(C)(C)C)c1nnc(C)n1-2` had a relative cell viability of 0.9008 ± 0.0079.

On to `CCC1(C)CC(=O)NC(=O)C1` [Bemegride], for which the relative cell viability is 1.07 ± 0.054.

`C/C(O)=C(\C#N)C(=O)Nc1cc(Br)ccc1Br` came in with a relative cell viability of 1.13 ± 0.047.

With `Cc1ccccc1-n1c(Cn2ncc3c(N)ncnc32)nc2cccc(C)c2c1=O`, the relative cell viability amounted to 1.15 ± 0.073.

With `CCN(Cc1ccc(Cl)nc1)/C(=C/[N+](=O)[O-])NC` [Nitenpyram], the relative cell viability was 1.05 ± 0.031.

In the case of `COc1cc(OC)c(OC)cc1C=O` [Asaraldehyde], the relative cell viability turned out to be 1.08 ± 0.014.

Regarding `Cc1sc2c(c1C)C(c1ccc(Cl)cc1)=NC(CC(N)=O)c1nnc(C)n1-2` (stereo unspecified), the relative cell viability is 0.954 ± 0.053.

In the case of `OC(c1ccccc1)(c1ccccc1)C1CCNCC1` [Azacyclonol], the relative cell viability was found to be 1.01 ± 0.026.

In the case of `C[C@H]1CNCCc2ccc(Cl)cc21` [Lorcaserin HCl], the relative cell viability was 1.1 ± 0.021.

For the molecule `C=C1C[C@@H]2[C@H](CC[C@]3(C)C(=O)CC[C@@H]23)[C@@]2(C)C=CC(=O)C=C12` [Exemestane], the relative cell viability came to 1.04 ± 0.06.

`Cc1ccc(-n2nccn2)c(C(=O)N2CCN(c3nc4cc(Cl)ccc4o3)CC[C@H]2C)c1` [Suvorexant (MK-4305)]: the relative cell viability was 1 ± 0.021.

The molecule `CCCN1CCO[C@@H]2c3cc(O)ccc3OC[C@H]21` displayed a relative cell viability of 1.02 ± 0.032.

`CCCCCCCCCCCCCCCC[n+]1ccccc1` [Cetylpyridinium Chloride] showed a relative cell viability of 0.837 ± 0.026.

Regarding `COc1cc(C)[nH]c(=O)c1CNC(=O)c1c(C)n([C@H](C)C2CCOCC2)c2ccccc12`, the relative cell viability is 1.086 ± 0.0027.

In turn, `CN(C)[C@@H]1C(=O)C(C(N)=O)=C(O)[C@@]2(O)C(=O)C3=C(O)c4c(O)cccc4[C@@](C)(O)[C@H]3[C@H](O)[C@@H]12` [Oxytetracycline Dihydrate] registered a relative cell viability of 1.1191 ± 0.00064.

`CN(C)[C@@H]1C(=O)C(C(N)=O)=C(O)[C@@]2(O)C(=O)C3=C(O)c4c(O)cccc4[C@@](C)(O)[C@H]3[C@H](O)[C@@H]12` [Oxytetracycline (Terramycin)] registered a relative cell viability of 1.05 ± 0.038.

On to `CN1C(=O)CCS(=O)(=O)C1c1ccc(Cl)cc1` (stereo unspecified) [Chlormezanone], for which the relative cell viability is 0.982 ± 0.12.

Molecule `O=P1(N(CCCl)CCCl)NCCCO1` (stereo unspecified) [Cyclophosphamide Monohydrate] had a relative cell viability of 1.09 ± 0.018.

`c1ccc2c(c1)sc1ccccc12` [Dibenzothiophene] gave a relative cell viability of 1.06 ± 0.046.

Turning to `CCC1=C[C@H]2CN3CCc4c([nH]c5ccccc45)[C@](C(=O)OC)(C2)[C@H]13` [Catharanthine], the relative cell viability came to 0.973 ± 0.15.

In turn, `CNCC(O)c1ccc(O)cc1` (stereo unspecified) [Synephrine HCl] gave a relative cell viability of 1.14 ± 0.1.

With `CNCC(O)c1ccc(O)cc1` (stereo unspecified) [Synephrine], the relative cell viability came to 1.11 ± 0.041.

Molecule `CCOc1ccccc1-n1c(C(C)N2CCN(C(=O)COc3ccc(Cl)cc3)CC2)nc2ccccc2c1=O` (stereo unspecified) [Erastin] registered a relative cell viability of 1.09 ± 0.017.

In the case of `CN1[C@@H]2CC[C@H]1C[C@@H](OC(=O)C(CO)c1ccccc1)C2` (stereo partly specified) [Atropine], the relative cell viability turned out to be 0.913 ± 0.017.

`C[C@]12CCC(=O)C(O)=C1CC[C@@H]1[C@@H]2CC[C@]2(C)C(=O)CC[C@@H]12` [Formestane] showed a relative cell viability of 1.09 ± 0.058.

Take `COc1ccc(C(CN(C)C)C2(O)CCCCC2)cc1` (stereo unspecified) [Venlafaxine]: the relative cell viability was determined as 1.14 ± 0.054.

Take `CCc1c(C(=O)C(N)=O)c2c(OCC(=O)O)cccc2n1Cc1ccccc1`: the relative cell viability worked out at 1.13 ± 0.088.

For the molecule `Cc1sc2c(c1C)C(c1ccc(Cl)cc1)=N[C@@H](CC(=O)Nc1ccc(O)cc1)c1nnc(C)n1-2`, the relative cell viability was found to be 0.987 ± 0.043.

In the case of `CC(C)NCC(O)c1ccccc1Cl` (stereo unspecified) [Clorprenaline HCl], the relative cell viability came to 1.1 ± 0.08.

On to `Cc1cc2c(C(C)C)c(O)c(O)c(C=O)c2c(O)c1-c1c(C)cc2c(C(C)C)c(O)c(O)c(C=O)c2c1O`, for which the relative cell viability was 0.587 ± 0.017.

`Cc1cc2c(C(C)C)c(O)c(O)c(C=O)c2c(O)c1-c1c(C)cc2c(C(C)C)c(O)c(O)c(C=O)c2c1O` [Gossypol] showed a relative cell viability of 0.835 ± 0.081.

Regarding `CN(C)C(=O)Oc1ccc[n+](C)c1` [Pyridostigmine Bromide], the relative cell viability amounted to 1.06 ± 0.06.

For `CN1CCN(c2nc3ccccc3nc2Cl)CC1`, the relative cell viability amounted to 1.02 ± 0.036.

Consider `CCN1CC2(OC(=O)c3ccccc3NC(C)=O)CCC(OC)C34C1C(CC23)C1(O)CC(OC)C2CC4C1(O)C2OC` (stereo unspecified) [Lappaconite HBr], for which the relative cell viability came out at 1.03 ± 0.076.

The molecule `CCN(CC)C(=O)c1ccc(C2=CC3(CCNCC3)Oc3cccc(O)c32)cc1` came in with a relative cell viability of 1.05 ± 0.05.

`O=c1[nH]c2ccc(Cl)cc2c(N[C@@H]2CN3CCC2CC3)c1-c1nc2ccccc2[nH]1` registered a relative cell viability of 0.368 ± 0.021.

Take `Cn1c(CCCC(=O)O)nc2cc(N(CCCl)CCCl)ccc21` [Bendamustine HCl]: the relative cell viability turned out to be 1.24 ± 0.033.

Molecule `O=C1CC[C@@]2(O)[C@H]3Cc4ccc(O)c5c4[C@@]2(CCN3CC2CC2)[C@H]1O5` [Naltrexone HCl] came in with a relative cell viability of 1.11 ± 0.057.

`CC(C)[C@]12O[C@H]1[C@@H]1O[C@]13[C@]1(O[C@H]1C[C@H]1C4=C(CC[C@@]13C)C(=O)OC4)[C@@H]2O` [Triptolide (PG490)]: the relative cell viability is 0.303 ± 0.0081.

`CC(C)(C)c1cc(C=C(C#N)C#N)cc(Br)c1O`: the relative cell viability worked out at 0.833 ± 0.25.

In turn, `CN(C)[C@@H]1C(=O)C(C(N)=O)=C(O)[C@@]2(O)C(=O)C3=C(O)c4c(O)cccc4[C@@](C)(O)[C@H]3C[C@@H]12` [Tetracycline HCl] returned a relative cell viability of 1.24 ± 0.087.

With `CC(NC(C)(C)C)C(=O)c1cccc(Cl)c1` (stereo unspecified) [Amfebutamone HCl], the relative cell viability was 1.07 ± 0.018.

On to `O=[N+]([O-])C=Cc1ccc2c(c1)OCO2` [MNS (3,4-Methylenedioxy-β-nitrostyrene, MDBN)], for which the relative cell viability amounted to 0.742 ± 0.054.

Turning to `CN1[C@@H]2C[C@@H](OC(=O)[C@H](CO)c3ccccc3)C[C@H]1[C@@H]1O[C@@H]12` [Scopolamine HBr], the relative cell viability was 1.13 ± 0.047.

Molecule `CN(C)CCc1ccc(O)cc1` [Hordenine] returned a relative cell viability of 0.998 ± 0.056.

With `C/C(=C\c1csc(C)n1)[C@@H]1C[C@@H]2O[C@@H]2CCC[C@H](C)[C@H](O)[C@@H](C)C(=O)C(C)(C)[C@@H](O)CC(=O)O1` [Epothilone A], the relative cell viability turned out to be 0.642 ± 0.044.

Take `COc1ccc(N(C(=O)Oc2c(C)cccc2C)c2ccnc(Nc3ccc(N4CCN(C)CC4)cc3)n2)c(OC)c1`: the relative cell viability was 1.2 ± 0.074.

For the molecule `COC1=C[C@@H]2[C@@H]3Cc4ccc(OC)c(O)c4[C@]2(CCN3C)CC1=O` [Sinomenine], the relative cell viability worked out at 0.9537 ± 0.0095.

Take `N[C@@H]1C[C@H]1c1ccccc1` [Tranylcypromine (2-PCPA) HCl]: the relative cell viability came to 1.04 ± 0.057.

For the molecule `Cn1cc(C2=C(c3cn(C4CCN(Cc5ccccn5)CC4)c4ccccc34)C(=O)NC2=O)c2ccccc21`, the relative cell viability was 1.367 ± 0.0029.
